Laboratory results as given in PubChem BioAssay AID504333 (National Center for Advancing Translational Sciences (NCATS), 2011).
Out of some 360,000 compounds screened, about 16,000 (4.4%) were called active. The inconclusive results got no clear call from the source; some entries with a clear call stand among them for comparison. Calls come from the whole dose curve; as a rule, active = well fitted inhibition curve with a large enough effect; inconclusive = small, poorly fitted or top-dose-only effect; inactive = no such curve, though single readings can be large or run the other way. Potencies of inconclusive entries are doubtful fits and often do not repeat.

Target: Bromodomain adjacent to zinc finger domain protein 2B (Homo sapiens) (UniProt Q9UIF8)
UniProt Q9UIF8, sequence (Q9UIF8 whole entry, looked up, the tested form may be a part): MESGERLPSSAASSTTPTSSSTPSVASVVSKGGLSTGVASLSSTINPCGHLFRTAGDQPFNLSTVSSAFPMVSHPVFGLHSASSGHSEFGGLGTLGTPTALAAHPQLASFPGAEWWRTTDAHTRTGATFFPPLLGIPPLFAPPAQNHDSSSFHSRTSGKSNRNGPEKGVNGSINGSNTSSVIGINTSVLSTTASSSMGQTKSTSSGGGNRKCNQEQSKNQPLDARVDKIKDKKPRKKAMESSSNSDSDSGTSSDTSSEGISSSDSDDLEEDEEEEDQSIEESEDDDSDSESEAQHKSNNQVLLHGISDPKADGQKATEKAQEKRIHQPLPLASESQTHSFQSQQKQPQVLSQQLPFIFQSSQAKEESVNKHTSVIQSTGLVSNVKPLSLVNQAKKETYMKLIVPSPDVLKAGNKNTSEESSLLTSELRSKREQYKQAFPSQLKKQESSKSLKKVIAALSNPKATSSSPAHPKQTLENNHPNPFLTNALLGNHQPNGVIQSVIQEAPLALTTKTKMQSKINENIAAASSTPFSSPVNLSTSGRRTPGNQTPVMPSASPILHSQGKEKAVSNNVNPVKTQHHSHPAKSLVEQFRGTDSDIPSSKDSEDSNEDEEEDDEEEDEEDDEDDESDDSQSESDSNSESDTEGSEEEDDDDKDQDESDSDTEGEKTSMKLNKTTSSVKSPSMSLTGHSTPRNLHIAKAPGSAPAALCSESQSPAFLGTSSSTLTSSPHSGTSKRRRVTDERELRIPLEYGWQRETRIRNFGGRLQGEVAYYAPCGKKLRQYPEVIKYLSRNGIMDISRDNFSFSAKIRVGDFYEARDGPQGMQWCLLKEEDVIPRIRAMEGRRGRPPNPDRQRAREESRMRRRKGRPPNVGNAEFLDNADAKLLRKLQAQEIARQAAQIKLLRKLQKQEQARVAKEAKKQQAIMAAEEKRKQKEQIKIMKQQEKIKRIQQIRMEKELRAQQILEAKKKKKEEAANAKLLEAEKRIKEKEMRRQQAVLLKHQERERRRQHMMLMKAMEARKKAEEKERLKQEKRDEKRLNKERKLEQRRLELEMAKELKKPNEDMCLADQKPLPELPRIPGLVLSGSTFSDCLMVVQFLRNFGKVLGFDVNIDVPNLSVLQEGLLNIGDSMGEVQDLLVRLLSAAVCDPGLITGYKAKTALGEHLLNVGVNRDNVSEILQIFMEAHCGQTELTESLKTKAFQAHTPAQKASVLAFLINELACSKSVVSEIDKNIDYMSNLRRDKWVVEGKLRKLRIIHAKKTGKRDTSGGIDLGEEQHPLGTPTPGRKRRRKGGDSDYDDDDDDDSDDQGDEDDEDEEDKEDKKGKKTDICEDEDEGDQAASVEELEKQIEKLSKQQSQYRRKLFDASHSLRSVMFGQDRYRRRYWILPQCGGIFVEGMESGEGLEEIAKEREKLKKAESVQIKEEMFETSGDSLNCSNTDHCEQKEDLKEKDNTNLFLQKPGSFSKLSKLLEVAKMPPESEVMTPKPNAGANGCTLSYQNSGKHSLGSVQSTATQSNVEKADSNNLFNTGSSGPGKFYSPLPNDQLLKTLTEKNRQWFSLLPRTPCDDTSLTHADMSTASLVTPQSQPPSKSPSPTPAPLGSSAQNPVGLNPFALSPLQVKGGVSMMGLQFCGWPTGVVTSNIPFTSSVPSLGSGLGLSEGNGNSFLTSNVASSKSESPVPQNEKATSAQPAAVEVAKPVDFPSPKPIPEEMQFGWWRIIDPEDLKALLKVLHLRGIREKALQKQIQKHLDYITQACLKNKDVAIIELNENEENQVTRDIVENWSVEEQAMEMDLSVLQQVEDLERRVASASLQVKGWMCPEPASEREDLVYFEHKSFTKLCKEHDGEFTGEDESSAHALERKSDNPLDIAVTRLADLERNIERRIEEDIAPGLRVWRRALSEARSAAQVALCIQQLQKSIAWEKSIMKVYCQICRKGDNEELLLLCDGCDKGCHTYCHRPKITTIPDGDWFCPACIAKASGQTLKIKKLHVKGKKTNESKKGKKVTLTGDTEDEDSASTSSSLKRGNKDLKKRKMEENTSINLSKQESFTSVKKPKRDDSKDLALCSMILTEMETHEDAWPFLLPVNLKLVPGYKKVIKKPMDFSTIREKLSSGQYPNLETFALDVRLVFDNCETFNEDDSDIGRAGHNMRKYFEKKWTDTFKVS
Test: qHTS Assay for Inhibitors of BAZ2B; note: nearly all actives have a fitted effect of over 60% in size
Conditions: AlphaScreen BAZ2B-H3K14Ac peptide displacement; series mostly up to 114 µM
Outline: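 Protein-peptide AlphaScreen: BAZ2B 50 nM, b-H3K14Ac 50 nM, 1x PBS pH 7.4 + 0.01% Tween-20. Preincubation 30 min RT; cpd 30 min RT (top 110 uM); beads 20 min RT, light-protected.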
Potency is the fitted concentration of half-maximal effect; tags give direction and shape of the fitted curve.

| SMILES | Potency |
| --- | --- |
| N#Cc1ccc(CN2CCN(C(=O)CN3C(=O)NC4(CCCC4)C3=O)CC2)cc1 | inactive |
| COc1ccc(NC(=O)CSc2ncccc2C(=O)OC(C)C)cc1OC | inconclusive: 7.08 µM [inhibitor, single point] |
| C#CCOCCOCCOCCNc1nc(N2CCN(C(=O)[C@H]([C@@H](C)CC)n3cc([C@@H](N)Cc4ccc(O)cc4)nn3)CC2)nc(N2CCN(C(=O)[C@H](CCCCN)n3cc([C@@H](N)CC(C)C)nn3)CC2)n1 | active: 79.4 µM |
| CCN(CC)P(=O)(Nc1cccc(C(F)(F)F)c1)c1ccc(N(C)C)cc1NC(=O)c1ccco1 (stereo unspecified) | inconclusive: 31.6 µM [inhibitor, partial curve] |
| Cc1ccc(C(=O)OCC(=O)c2ccc(CC(=O)N3CCOCC3)s2)c(C)c1 | active: 50.1 µM |
| CO/N=C(/CN1CCCCC1)c1ccc(Cl)cc1 | inconclusive: 89.1 µM [inhibitor, single point] |
| CSc1ccc(C(=S)N2CCN(C(c3ccccc3)c3ccccc3)CC2)cc1 | inactive |
| CCCC(NC(=O)Cc1c(C)c2cc3c(C)c(C)oc3c(C)c2oc1=O)C(=O)N[C@@H](Cc1ccccc1)C(=O)O (stereo partly specified) | active: 50.1 µM |
| CCOc1cc(NC(=S)NCCc2ccccc2)c(OCC)cc1NC(C)=O | inconclusive: 50.1 µM [inhibitor, partial curve] |
| COc1cc(NS(=O)(=O)c2ccc3[nH]c4c(c3c2)CCCCCC4)cc(OC)c1 | inconclusive: 25.1 µM [inhibitor, full curve] |
| Cc1ccc(NC(=O)CC(C)S(=O)(=O)c2ccc3c(c2)NC(=O)CO3)cc1Cl (stereo unspecified) | inactive |
| COc1ccc(CCC(C)Nc2cccc(F)c2)cc1 (stereo unspecified) | inactive |
| Cc1ccc2c(c1)N=C(c1ccccc1)CC(C(Cl)Cl)=N2 | inconclusive: 50.1 µM [inhibitor, partial curve] |
| Cc1cc(C(=O)NNC(=O)c2cccc(N(C)C)c2)c(C)o1 | inconclusive: 79.4 µM [inhibitor, single point] |
| O=C1CS/C(=N/N=C\c2ccn[nH]2)N1 | active: 50.1 µM |
| Cc1cc2[nH]cnc2c([N+](=O)[O-])c1C | inactive |
| O=C(O)c1cccc(Nc2nc3ccccc3nc2NS(=O)(=O)c2cccs2)c1 | inactive |
| Cc1cccc(N2CCN(S(=O)(=O)c3ccc4c(c3)CCN4C(=O)CCC(=O)O)CC2C)c1 (stereo unspecified) | inconclusive: 89.1 µM [inhibitor, single point] |
| O=[N+]([O-])c1cc(Cl)ccc1N1CCOCC1 | inconclusive: 79.4 µM [inhibitor, single point] |
| NC(=O)c1ccc(N2CCN(c3ccc(O)cc3)CC2)c([N+](=O)[O-])c1 | inconclusive: 50.1 µM [inhibitor, partial curve] |
| CCOC(=O)c1c(S(=O)(=O)N2CCCC(C(=O)NCc3ccc(Cl)cc3)C2)c(C)n(C)c1C (stereo unspecified) | inactive |
| Cc1cc(=O)n2nc(N3CCCC(C(=O)Nc4ccc(C)c(C)c4)C3)sc2n1 (stereo unspecified) | inactive |
| CCN1CCN(C(c2cc(OC)c(OC)c(OC)c2)c2nnnn2C(C)C)CC1 (stereo unspecified) | active: 50.1 µM |

| SMILES | Potency |
| --- | --- |
| CCc1ccc(C2c3[nH]c4ccccc4c3CCN2C(=O)c2cc(C)nn2C)cc1 (stereo unspecified) | inconclusive: 44.7 µM [inhibitor, partial curve] |
| CCn1c(CNC(=O)c2ccc(OC)cc2)nnc1SCC(=O)c1ccccc1 | inactive |
| O=C1c2ccccc2C(=O)c2c1cccc2N1CCOCC1 | active: 15.8 µM |
| Cc1c(Cl)cccc1-c1ccc(C(=O)Nc2ccc(F)cc2)o1 | inconclusive: 3.55 µM [inhibitor, full curve] |
| O=C(O)CCSc1ccc([N+](=O)[O-])cc1[N+](=O)[O-] | inconclusive: 79.4 µM [inhibitor, single point] |
| COc1ccccc1/C=C1\CCCC2=C1Nc1nnnn1C2c1ccccc1OC (stereo unspecified) | inconclusive: 28.2 µM [inhibitor, full curve, poor fit] |
| Cc1nc(NS(=O)(=O)c2ccccc2)sc1NC(=O)Nc1ccc(Cl)cc1 | active: 50.1 µM |
| C=Cc1ccc(Cn2c(C)c(CNCc3cccc(Br)c3)c(C(=O)O)c2C)cc1 | inconclusive: 20 µM [inhibitor, full curve] |
| COc1ccc(NS(=O)(=O)c2ccc(OC)c(N(C)S(=O)(=O)c3ccc(Cl)cc3)c2)cc1 | inactive |
| COc1ccc(C(=O)N/N=C/c2sc3ccccc3c2O)cc1 | active: 44.7 µM |
| N#CCC(=O)Nc1nc(-c2ccc3c(c2)OCCO3)cs1 | inconclusive: 56.2 µM [inhibitor, partial curve, poor fit] |
| CCOc1ccc(/C=C2\SC(=S)N(C(C(=O)O)c3ccccc3)C2=O)cc1OC (stereo unspecified) | inconclusive: 56.2 µM [inhibitor, partial curve] |
| Cc1ccc(C(=O)Nc2ncnc3sc4c(c23)CCCCC4)cc1 | inconclusive: 7.08 µM [inhibitor, single point] |
| CCN(CC)C(=O)CSc1nc(-c2ccccc2F)nc2c1Cc1c(CO)cnc(C)c1O2 | inconclusive: 50.1 µM [inhibitor, partial curve] |
| Cc1ccc(C2SCC(=O)N2c2ccccc2)cc1 (stereo unspecified) | inconclusive: 89.1 µM [inhibitor, single point] |
| COc1ccnc(N=CNOCc2ccc(C)cc2)c1C#N | inactive |
| Cc1cccc(C)c1NC(=O)CN(c1ccccn1)S(=O)(=O)c1ccc(F)cc1 | inactive |
| CCC(Sc1nc2ccsc2c(=O)n1Cc1ccc(C(=O)O)cc1)C(=O)Nc1ccc(C)c(Cl)c1 (stereo unspecified) | inconclusive: 89.1 µM [inhibitor, single point] |
| O=C(O)CNC(=O)CC1S/C(=N/N=C2\CSC(=O)N2)NC1=O (stereo unspecified) | active: 6.31 µM |
| OC(CNC1CCCc2ccccc21)COc1ccc2ccccc2c1 (stereo unspecified) | inconclusive: 79.4 µM [inhibitor, single point] |
| CN(C)CCNC(=O)C(=O)C1C(=O)Nc2ccccc21 (stereo unspecified) | inactive |
| COc1ccccc1OCC(=O)NCC(c1ccc(Cl)cc1)N1CCCCC1 (stereo unspecified) | inactive |
| O=C(c1ccccc1)N1N=C(c2ccco2)CC1c1cccs1 (stereo unspecified) | inconclusive: 79.4 µM [inhibitor, single point] |
